Measured values taken from patent US20240189439A1.

B1: G1-3J-DAR4-(B1) (antibody, human IgG1, lambda)
heavy: QVQLVQSGAEVKKPGSSVKVSCKASGGTFSDYAITWVRQAPGQGLEWMGGIIPIFGTANYAQKFQGRVTITADESTSTAYMELSSLRSEDTAVYYCAREGGLLTDISYSRYWFAYWGQGTLVTVSSASTKGPSVFPLAPSSKSTSGGTAALGCLVKDYFPCPVTVSWNSGALTSGVHTFPAVLQSSGLYSLSSVVTVPSSSLGTQTYICNVNHKPSNTKVDKRV[in this place human IgG1 Fc with S375C (EU numbers)]
light: SYELTQPLSVSVALGQTARITCSGDALRDKFVYWYQQKPGQAPVLVIYDDNNRPSGIPERFSGSNSGNTATLTISRAQAGDEADYYCQSWDHSYSLVVFGGGTKLTVLGQPKAAPSVTLFPPSSEELQANKATLVCLISDFYPGAVTVAWKADSSPVKAGVETTTPSKQSNNKYAASSYLSLTPEQWKSHRSYSCQVTHEGSTVEKTVAPTECS
modifications: here or on the partner: linker-drug (B1) on the engineered cysteines E152C and S375C (EU numbering), DAR4
B2: G1-3R-DAR4-(B1) (antibody, human IgG1, lambda)
heavy: QVQLVQSGAEVKKPGSSVKVSCKASGGTFSDYAITWVRQAPGQGLEWMGGIIPIFGTANYAQKFQGRVTITADESTSTAYMELSSLRSEDTAVYYCAREGGLLTDISYSRYWFAYWGQGTLVTVSSASTKGPSVFPLAPSSKSTSGGTAALGCLVKDYFPCPVTVSWNSGALTSGVHTFPAVLQSSGLYSLSSVVTVPSSSLGTQTYICNVNHKPSNTKVDKRV[in this place human IgG1 Fc with S375C (EU numbers)]
light: SYELTQPPSVSVSPGQTASITCSGDALRDKFVYWYQQKPGQSPVLVIYDDNNRPSGIPERFSGSNSGNTATLTISGTQAMDEADYYCQSWDHSYSLVVFGGGTKLTVLGQPKAAPSVTLFPPSSEELQANKATLVCLISDFYPGAVTVAWKADSSPVKAGVETTTPSKQSNNKYAASSYLSLTPEQWKSHRSYSCQVTHEGSTVEKTVAPTECS
modifications: here or on the partner: linker-drug (B1) on the engineered cysteines E152C and S375C (EU numbering), DAR4
B3: Anti-PMEL17G1_E152C_S375C_(B1) (antibody, human IgG1, lambda)
heavy: QVQLVQSGAEVKKPGSSVKVSCKASGGTFSDYAITWVRQAPGQGLEWMGGIIPIFGTANYAQKFQGRVTITADESTSTAYMELSSLRSEDTAVYYCAREGGLLTDISYSRYWFAYWGQGTLVTVSSASTKGPSVFPLAPSSKSTSGGTAALGCLVKDYFPCPVTVSWNSGALTSGVHTFPAVLQSSGLYSLSSVVTVPSSSLGTQTYICNVNHKPSNTKVDKRV[in this place human IgG1 Fc with S375C (EU numbers)]
light: DIELTQPPSVSVSPGQTASITCSGDALRDKFVYWYQQKPGQAPVLVIYDDNNRPSGIPERFSGSNSGNTATLTISGTQAEDEADYYCQSWDHSYSLVVFGGGTKLTVLGQPKAAPSVTLFPPSSEELQANKATLVCLISDFYPGAVTVAWKADSSPVKAGVETTTPSKQSNNKYAASSYLSLTPEQWKSHRSYSCQVTHEGSTVEKTVAPTECS
modifications: here or on the partner: linker-drug (B1) on the engineered cysteines E152C and S375C (EU numbering), DAR4

molecular target: human PMEL17 (human), P40967; assay: cell-based or functional assay
Sequence (P40967 25-661): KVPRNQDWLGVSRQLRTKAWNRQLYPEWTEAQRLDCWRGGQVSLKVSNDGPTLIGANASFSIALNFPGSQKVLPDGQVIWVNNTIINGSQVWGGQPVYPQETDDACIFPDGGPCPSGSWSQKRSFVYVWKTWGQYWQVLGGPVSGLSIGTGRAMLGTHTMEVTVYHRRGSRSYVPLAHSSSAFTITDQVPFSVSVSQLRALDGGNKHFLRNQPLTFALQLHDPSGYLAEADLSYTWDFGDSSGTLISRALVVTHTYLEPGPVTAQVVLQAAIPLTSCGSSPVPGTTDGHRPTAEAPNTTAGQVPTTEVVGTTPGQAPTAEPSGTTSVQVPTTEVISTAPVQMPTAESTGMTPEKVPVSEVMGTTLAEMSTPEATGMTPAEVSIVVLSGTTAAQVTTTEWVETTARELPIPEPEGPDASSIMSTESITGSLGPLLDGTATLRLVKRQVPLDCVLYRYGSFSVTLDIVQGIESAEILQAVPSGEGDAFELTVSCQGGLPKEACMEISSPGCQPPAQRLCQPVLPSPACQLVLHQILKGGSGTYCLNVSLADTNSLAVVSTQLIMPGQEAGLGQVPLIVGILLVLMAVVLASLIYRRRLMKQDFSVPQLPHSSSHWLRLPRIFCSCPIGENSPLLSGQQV

Binder	GI50, cell proliferation (resazurin-based viability assay), 92.1 cells [nM]	GI50, cell proliferation (resazurin-based viability assay), MP41 cells [nM]
B1	0.85	0.582
B2	0.811	0.654
B3	0.722	0.563
